The target in test [1] is SOX4 (human (endogenous in TE8 and FLO1)) (UniProt Q06945). The test can be described thus: co-IP; FLO1 cell lysate (500 ug total protein) with agarose-immobilised anti-SOX4, anti-EZH2, anti-HDAC3 or isotype control antibody (6 ug), overnight at 4 C; lysis buffer 150 mM NaCl, 50 mM Tris pH 8, 1% Triton X-100, 1% NP-40; immunoblot.
Test [2] concerns the target EZH2 (enhancer of zeste homolog 2) (human (endogenous in TE8 and FLO1)) (UniProt Q15910). Described as above.
Test [3] concerns the target SOX4 (human (endogenous in TE8 and FLO1)) (UniProt Q06945). The test can be described thus: co-IP; TE8 cell lysate (500 ug total protein) with agarose-immobilised anti-SOX4, anti-EZH2, anti-HDAC3 or isotype control antibody (6 ug), overnight at 4 C; lysis buffer 150 mM NaCl, 50 mM Tris pH 8, 1% Triton X-100, 1% NP-40; immunoblot.
Test [4] concerns the target EZH2 (enhancer of zeste homolog 2) (human (endogenous in TE8 and FLO1)) (UniProt Q15910). The test is described as above.
Test [5] deals with HDAC3 (human (endogenous in TE8 and FLO1)) (UniProt O15379). Described as above.
The target is the same in test [6]. Briefly: co-IP; FLO1 cell lysate (500 ug total protein) with agarose-immobilised anti-SOX4, anti-EZH2, anti-HDAC3 or isotype control antibody (6 ug), overnight at 4 C; lysis buffer 150 mM NaCl, 50 mM Tris pH 8, 1% Triton X-100, 1% NP-40; immunoblot. In general terms: In western blotting, separated proteins are transferred to a membrane and probed.

Protein sequences, listed by entry. Tags and fused reporters are not part of them.
UniProt Q06945: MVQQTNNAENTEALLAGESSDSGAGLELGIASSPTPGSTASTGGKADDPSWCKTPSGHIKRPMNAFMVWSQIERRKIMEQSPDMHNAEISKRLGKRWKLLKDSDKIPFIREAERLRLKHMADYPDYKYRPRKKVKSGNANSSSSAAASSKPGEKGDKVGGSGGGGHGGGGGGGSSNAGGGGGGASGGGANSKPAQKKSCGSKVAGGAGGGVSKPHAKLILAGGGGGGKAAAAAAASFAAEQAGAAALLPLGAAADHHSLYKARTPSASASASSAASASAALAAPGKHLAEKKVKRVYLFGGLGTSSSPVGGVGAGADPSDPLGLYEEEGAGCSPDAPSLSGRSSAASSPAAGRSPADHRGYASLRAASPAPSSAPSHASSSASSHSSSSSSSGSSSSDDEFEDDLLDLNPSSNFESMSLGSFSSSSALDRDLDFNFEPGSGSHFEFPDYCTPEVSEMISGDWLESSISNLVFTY
UniProt Q15910: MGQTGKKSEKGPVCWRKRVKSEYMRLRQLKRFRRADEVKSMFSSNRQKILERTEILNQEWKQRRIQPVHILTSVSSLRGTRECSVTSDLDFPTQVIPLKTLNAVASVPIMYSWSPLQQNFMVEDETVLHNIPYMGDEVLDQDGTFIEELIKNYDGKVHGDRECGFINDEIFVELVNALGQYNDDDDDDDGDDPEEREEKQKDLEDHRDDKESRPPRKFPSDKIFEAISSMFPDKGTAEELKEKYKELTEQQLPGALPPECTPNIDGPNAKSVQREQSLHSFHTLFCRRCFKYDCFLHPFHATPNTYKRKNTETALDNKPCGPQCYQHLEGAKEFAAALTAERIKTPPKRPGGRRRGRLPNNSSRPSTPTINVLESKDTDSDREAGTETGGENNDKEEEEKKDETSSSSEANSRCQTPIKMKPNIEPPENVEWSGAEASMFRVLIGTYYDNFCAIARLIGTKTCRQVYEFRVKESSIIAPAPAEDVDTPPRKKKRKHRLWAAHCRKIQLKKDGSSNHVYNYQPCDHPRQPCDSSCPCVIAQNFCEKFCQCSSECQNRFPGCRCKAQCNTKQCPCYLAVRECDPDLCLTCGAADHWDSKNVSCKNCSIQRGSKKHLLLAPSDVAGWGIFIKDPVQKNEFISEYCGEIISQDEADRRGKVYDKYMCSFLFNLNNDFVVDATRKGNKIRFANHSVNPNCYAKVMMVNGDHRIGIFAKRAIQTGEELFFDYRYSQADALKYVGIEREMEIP
UniProt O15379: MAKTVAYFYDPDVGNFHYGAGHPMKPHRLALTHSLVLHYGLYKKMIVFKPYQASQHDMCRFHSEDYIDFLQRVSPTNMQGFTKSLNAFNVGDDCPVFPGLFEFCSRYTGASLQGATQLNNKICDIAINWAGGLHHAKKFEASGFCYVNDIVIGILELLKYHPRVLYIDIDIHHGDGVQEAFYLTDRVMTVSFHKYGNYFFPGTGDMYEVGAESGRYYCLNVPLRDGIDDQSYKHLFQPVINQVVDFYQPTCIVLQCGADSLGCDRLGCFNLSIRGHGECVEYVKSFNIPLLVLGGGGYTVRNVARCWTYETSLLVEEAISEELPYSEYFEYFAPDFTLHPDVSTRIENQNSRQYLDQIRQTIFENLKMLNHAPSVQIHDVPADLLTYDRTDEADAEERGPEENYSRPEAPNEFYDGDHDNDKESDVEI
UniProt Q15022: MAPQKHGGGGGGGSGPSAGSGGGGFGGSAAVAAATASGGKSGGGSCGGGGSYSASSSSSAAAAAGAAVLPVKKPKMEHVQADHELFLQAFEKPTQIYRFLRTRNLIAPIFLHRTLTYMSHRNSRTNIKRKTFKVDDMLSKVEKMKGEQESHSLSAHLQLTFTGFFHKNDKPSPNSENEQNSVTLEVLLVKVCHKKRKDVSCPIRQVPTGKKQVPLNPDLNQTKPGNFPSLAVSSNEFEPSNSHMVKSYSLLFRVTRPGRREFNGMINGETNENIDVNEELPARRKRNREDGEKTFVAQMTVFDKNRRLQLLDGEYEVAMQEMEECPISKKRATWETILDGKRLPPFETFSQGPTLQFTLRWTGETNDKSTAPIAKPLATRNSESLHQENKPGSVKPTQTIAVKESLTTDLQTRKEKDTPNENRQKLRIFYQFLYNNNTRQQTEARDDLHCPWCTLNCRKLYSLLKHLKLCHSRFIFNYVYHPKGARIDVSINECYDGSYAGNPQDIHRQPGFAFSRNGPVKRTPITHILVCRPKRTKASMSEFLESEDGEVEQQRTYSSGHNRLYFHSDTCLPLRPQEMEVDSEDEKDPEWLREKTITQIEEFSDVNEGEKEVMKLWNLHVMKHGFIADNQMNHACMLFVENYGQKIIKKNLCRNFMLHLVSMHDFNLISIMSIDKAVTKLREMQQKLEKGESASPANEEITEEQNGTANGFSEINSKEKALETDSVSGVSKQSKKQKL

These are yes or no findings as the source states them, for the method shown. Binding seen in cells or lysates may run through a third protein. Some results given as binding are weak or reduced against the parent protein; the word gives no strength.

As for “HDAC3 (from UniProt O15379 1-428) (enzyme)”, the binding result in test [1], in test [2], in test [3] and in test [4] was “binds” each time.

Regarding SOX4 (from UniProt Q06945 1-474), the binding entry in test [2], in test [5] and in test [4] was “binds” in each case.

On to SUZ12 (from UniProt Q15022 1-739), for which the binding result in test [6] and in test [5] was “no binding” each time.

For the origin of these results see PMC4374188.
